# Test results from the supplement of paper PMC3334620.
# In all, about 33,000 sequences were measured (“E-score (-0.5 to 0.5)”: median about -0.012, highest 2% from about 0.29 on). The list shows a part of the results.
# Target: T1, Ybr033w (UniProt P38073)
# T1 sequence: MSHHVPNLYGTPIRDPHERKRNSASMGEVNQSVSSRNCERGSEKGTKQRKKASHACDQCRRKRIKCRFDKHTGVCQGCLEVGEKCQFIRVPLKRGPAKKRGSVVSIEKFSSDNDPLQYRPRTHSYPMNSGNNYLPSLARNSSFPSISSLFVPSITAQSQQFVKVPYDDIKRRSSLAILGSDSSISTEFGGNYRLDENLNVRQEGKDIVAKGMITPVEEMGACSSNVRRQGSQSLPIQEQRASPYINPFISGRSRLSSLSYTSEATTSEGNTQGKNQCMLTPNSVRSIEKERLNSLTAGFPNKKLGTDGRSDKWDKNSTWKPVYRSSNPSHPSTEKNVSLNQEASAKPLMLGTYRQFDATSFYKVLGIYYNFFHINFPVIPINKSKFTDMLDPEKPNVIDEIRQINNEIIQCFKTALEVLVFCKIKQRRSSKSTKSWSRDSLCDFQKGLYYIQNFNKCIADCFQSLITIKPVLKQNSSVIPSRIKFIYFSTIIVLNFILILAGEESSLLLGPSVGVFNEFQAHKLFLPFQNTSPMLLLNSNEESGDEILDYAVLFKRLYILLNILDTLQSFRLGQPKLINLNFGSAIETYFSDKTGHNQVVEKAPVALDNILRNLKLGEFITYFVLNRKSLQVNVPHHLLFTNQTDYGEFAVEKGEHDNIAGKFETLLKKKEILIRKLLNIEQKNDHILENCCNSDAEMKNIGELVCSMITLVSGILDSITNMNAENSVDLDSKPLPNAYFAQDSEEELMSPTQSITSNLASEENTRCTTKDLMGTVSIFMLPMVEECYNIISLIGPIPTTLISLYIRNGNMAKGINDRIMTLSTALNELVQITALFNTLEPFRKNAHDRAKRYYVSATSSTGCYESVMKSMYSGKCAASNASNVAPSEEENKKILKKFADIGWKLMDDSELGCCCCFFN
# Experiment: PBM E-score (8-mer binding enrichment) (E-score (-0.5 to 0.5)); higher = stronger / more preferred TF binding; most listed sequences are background and not binding sites
# Conditions: protein concentration: 200 nM; construct: GST-full length
# Summary of the method: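 For each ungapped eight-base word taken together with its reverse complement, the Universal PBM Analysis Suite assigned an E-score. Binding data came from GST-tagged yeast transcription factors, applied at about 100-200 nM, on universal all-10-mer Agilent arrays made double-stranded by primer extension. Fluorescent anti-GST marked bound protein, and scans were normalised with masliner.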
row,Sequence,PBM E-score
1,AATAACTG,0.271
2,GCTCGAGC,-0.0188
3,CAGACTGA,-0.103
4,CTATTTCC,0.276
5,ACATACGT,-0.0225
6,CACACCCC,-0.251
7,AGGGGGTG,-0.353
8,ATAGGTCA,0.114
9,ACAATGAC,-0.0405
10,GAATTTAC,0.181
11,CGCCTGAA,-0.00563
12,GGTACGTA,0.00587
13,CAAGGCAA,-0.0761
14,ACCCAAAA,0.0634
15,ACCCGGCG,-0.187
16,TATATACA,0.24
17,AGCAGACT,0.00644
18,AGGGCGAT,-0.196
19,CCATATCC,-0.0724
20,GCCTTCGC,-0.129
21,CGTGCGAA,-0.0457
22,ACCGCAGG,0.052
23,AACTTCTT,0.167
24,AACATAGA,-0.0138
25,CATGTGAC,-0.0101

row,Sequence,PBM E-score
1,ACGCGAAT,-0.0106
2,GGACTAGA,-0.0912
3,CTTAACCA,0.185
4,ATGAAGGC,0.0345
5,AGATGACC,-0.134
6,CGCAAGCA,0.0716
7,CGCCCTCA,-0.209
8,ACATGTAT,0.248
9,TAAACGAA,0.138
10,TATTAACA,0.291
11,AGAAGTGG,0.0389
12,GCACCTAA,0.0093
13,AGTCGGTG,-0.0636
14,AATGCGAG,0.291
15,CACGATGG,-0.164
16,ACCATTAT,-0.0466
17,CGCGTCGC,-0.0746
18,AAGGTAAA,0.189
19,TGACATAA,0.204
20,AACAATCT,0.168
21,ATAGTAGA,0.158
22,ACGATGCA,-0.0337
23,AGTATCTG,-0.00576
24,ACTGTTGA,0.0498
25,TATATGAA,0.156

row,Sequence,PBM E-score
1,GAGGTATA,0.259
2,ATGTTCAA,0.0215
3,CGAAAGCC,-0.307
4,CAGGTTGG,-0.079
5,ACAATGCA,0.165
6,CCGCACGG,-0.0878
7,CCGCCTTA,-0.167
8,CGTGGTTA,-0.0128
9,AGTCCGTC,-0.104
10,AAGACACG,-0.0957
11,AGTACTAA,0.156
12,AAGTTCCT,0.0578
13,AGATTCCA,0.207
14,CAACTCAC,0.106
15,GCAGAATA,0.0133
16,ACGAGCCC,-0.205
17,TGAACAAA,0.284
18,ATACCGAA,0.126
19,ATTCTATG,-0.02
20,AGGATATG,0.0735
21,CAGTCTGG,-0.226
22,ATACGGGC,-0.199
23,ACGCACTA,0.0377
24,CTTTGCCC,-0.223
25,AGCGCGGA,0.0442

row,Sequence,PBM E-score
1,ATCTATTA,0.327
2,AGACCCCC,-0.299
3,CCCCTGAA,-0.119
4,ATGTATGG,0.0739
5,CATCCAAG,-0.00818
6,AAGGGTAG,-0.055
7,CCTTCAAG,-0.0729
8,AGCACGAT,0.0621
9,GCTAGTTA,0.0912
10,AGGGAGTA,-0.044
11,CACGTTGC,-0.172
12,AAGTTCAT,0.252
13,GAGCGCGC,-0.0206
14,GGACCCCC,-0.37
15,AGACCACC,-0.142
16,ACTTGCAC,-0.14
17,AGGTCGAC,0.0882
18,AGGCGGCC,-0.27
19,AAACGTAT,0.234
20,GCGCAAAA,0.177
21,AAATGTGG,0.171
22,ACCGTAAA,0.134
23,ACTGGCAA,-0.141
24,ATGGGGCG,-0.105
25,TCTGGCCA,-0.17

row,Sequence,PBM E-score
1,GCGATACC,-0.236
2,AGAACTGA,0.0735
3,CCTTAGCA,-0.0375
4,ATCGACGC,0.0993
5,GGCCAGAC,-0.152
6,ATTTAGTA,0.376
7,GCGGTTGA,0.0885
8,GGATTAAA,0.341
9,GGCCAACC,-0.123
10,TATACGAA,0.182
11,AATGATAA,0.192
12,ACACTCCT,-0.122
13,AATTCCAC,0.235
14,GCGCCCGC,-0.226
15,GCGATCCC,-0.201
16,GCAAGAAC,0.16
17,CCAGCGCG,-0.101
18,CATCGGTC,-0.201
19,TCAATTGA,0.156
20,CCTGACTC,-0.244
21,CAGAGATG,0.0423
22,CATCTTCA,-0.0969
23,AGACCTTC,-0.216
24,GCCCATCA,-0.178
25,AACTGAAA,0.16

row,Sequence,PBM E-score
1,CTCTCGCA,-0.197
2,CCCAAGAC,-0.0859
3,CTTGGGCC,-0.286
4,AAATATGG,0.12
5,ATCAAGGG,0.0233
6,GTATCAAC,0.00681
7,CAGGATTA,0.273
8,ACGACGAT,0.0312
9,CGAGCACC,-0.323
10,TACGCATA,0.077
11,TATCGAAA,0.242
12,CTTGTCGC,-0.143
13,ACTGAGAT,-0.0419
14,AGGGAACA,0.249
15,AACTAAAG,0.231
16,TCTAACCA,0.0972
17,CGGCCGGA,-0.048
18,CCTACAGC,-0.219
19,AAACATTA,0.0756
20,CCCACAGG,-0.206
21,CCGCTTAG,-0.179
22,AAGCACGG,-0.216
23,TGAGGACA,0.00432
24,AAGTCAAA,0.148
25,GCTCGCAC,-0.13

row,Sequence,PBM E-score
1,CCCTTGTA,-0.161
2,CAGAGATC,-0.0229
3,TCCGGGAA,0.146
4,GTGATTTA,0.295
5,TAGGCACA,-0.124
6,CCCTCACG,-0.289
7,AATCGTGG,0.149
8,AATTTTTG,0.265
9,ATCCAGTA,0.122
10,AGACGACG,-0.16
11,GGGTTGAC,-0.118
12,AAAAGGAG,-0.104
13,GCATGCCC,-0.0396
14,CAGAAATA,0.214
15,CTCCGAAG,0.0523
16,AACGGCAC,-0.255
17,ATGCCCTC,0.00472
18,GAGCTCGA,-0.137
19,CCTTTGTC,-0.0804
20,ATCATCGC,-0.0317
21,CTACAGAA,0.148
22,AACCACCA,0.0528
23,AACGCTTC,-0.045
24,ACCGCGGG,-0.0509
25,CTAAAGAA,0.0669

row,Sequence,PBM E-score
1,AGCCGCAT,0.0405
2,ATGAAAAG,-0.153
3,ACATACTA,0.138
4,CTCTAGAC,-0.0638
5,CACCATTA,-0.00605
6,ACTGCTTA,0.0348
7,ATATGACG,0.0969
8,CATCTCGG,0.0046
9,AGAGCCAG,-0.223
10,AAATCGTC,0.112
11,ACCACAGA,-0.0371
12,AGCGCTTA,-0.0172
13,ATGTGAAC,-0.132
14,ACGACAAC,0.096
15,TAAATTAA,0.283
16,CCTTGATA,0.105
17,ATTGCACC,0.0271
18,GGCGCTTA,-0.164
19,ATCTAGCA,0.0532
20,ATATTAAT,0.314
21,ATATCTGC,0.0752
22,ACGATAAA,-0.0127
23,ACGTCCCT,-0.0559
24,GCCTTGGA,-0.248
25,AACTCTCT,0.0664

row,Sequence,PBM E-score
1,ACATGTAA,0.179
2,GTTGACTA,0.0137
3,AAAGTAGG,0.107
4,AGAGGCTG,-0.239
5,TAGGCCCA,-0.171
6,CTCAAACA,0.152
7,ACTGCCCG,-0.0826
8,AACTTTGG,0.0726
9,ATGTTGAG,-0.038
10,ACCACATC,0.0457
11,GCAATTCC,-0.0347
12,CCAAATCG,-0.0947
13,GGGGTACA,-0.227
14,ACAATACC,0.166
15,CCTCAGAC,-0.111
16,AACAGGTG,-0.0949
17,ACCGTGAT,-0.0251
18,ACCGGGTG,-0.185
19,ACCTGACG,-0.12
